# In the supplement of paper PMC12632987:
# Whole data set: some 2,300 sequences, median “median log2 fold change of GCK-ALFA target abundance (FLAG IP / Myc IP barcode read proportion)” near 0.095, cut for the lowest 2% near -0.47. The list shows a part of the results.
# B1: LC3A_3_1406 (protein)
# chain: FEEIKKEILKTLKEMGASEEVLEAAEEVLKLLEKRGYLEAAKTLLEEVKELKDASDEILLDFFEDVKKYLEENDDSEEEVVKFIKEEARIAKSANEIEEL
# B2: LC3A_61_2042 (protein)
# chain: LEERFEEALEELKELGLSEEAIEKLKELYKVDPEEALELAEELVEALKAGVKKEVLEELIEKTYEEVKKAKTQEEKEAILEEAVEEVEDLINLIPLEDLE
# B3: LC3A_3_1385 (protein)
# chain: MEEEMEKTLERLREAGHSEETIEAARKALEALIEKGYENSAKTFIELLDELIHLPDELLLELFEDVLELIETEDIDEETLTEKIKEIASVYKNESEIEEL
# B4: LC3A_45_1939 (protein)
# chain: RYRATVDLLVPRELAEEALAATRAAMEELEAERGPAIRVDHAALDASYAASADEDDVYLRVEIVAPTRQDALDAADELVDRLHARLGPRVAAIISLEELP
# B5: LC3A_free_39_2211 (protein)
# chain: SEEELEELLKKVAEESGLDYEYIRERVEEIRRVAGLSLEQMLELVKAILEAVREGADAEEILEEVLALAKELVAAGKSPEEIAEALLEEVEDFRNLIPLD
# B6: LC3A_37_1342 (protein)
# chain: MEKDIAVGVANTEEGVELLKKELERLKKERNWETKVIRLPETATETELVEAAEAEMERIAAEIAKKEGMKAKVSSIIEIEKNPKDGKPIVIVYALVTLTP
# B7: LC3A_28_1037 (protein)
# chain: DELRRRAEEAVKEAEEQAKKGEEAVVTIKVGKLPTEEAKRIVREALERLIKISKKYGNVKISVVIDVDGDQELVDAIIDVAEEAEKKNPNLTVIIALSEE
# B8: LC3A_28_643 (protein)
# chain: SEIEEQIKEALEKAKEAREKGEPTVIELTLDGNATQEDVEKLIKALKEIAEILESVPGSAIIINVTGNVKQEHIDKIADAAEEIEKKYPNVTVIIALEEK
# B9: LC3A_3_1893 (protein)
# chain: MEKEVEELVKEMKEKGKSEETIELFKKVIELLKKRGYEEAAKTLIEEMRKLLDAPDEIVLDFLKEVLKVLEEEDLSEEELIEKIKELATLAKNEAEIEEL
# B10: LC3A_28_934 (protein)
# chain: MTVEERIKKALEEAEKAAKAGEPVVITIKVTSKDTQEEIDKLIKTIKEIAEILKNVKGAAIIVDVDAGVPQERIDKIADTLEEIEKKYPNINAILALDED
# B11: LC3A_3_1713 (protein)
# chain: MEELLARAREILEAQGRSEETIEAALAALKALLERGYEEAAETLLELLEEMADLSDEILLAFFEDVKEFVETEDASEEEVIEFIKEEARTARSEQEIEEL
# B12: LC3A_3_1580 (protein)
# chain: MEEFIKEARKRLKEAGFSEEVIEKAEEALKALLERGAEEAAKELLEGLLRLKDAPEEDLLAALEEVKAVAEDESLTKEEILKEVKEILSTLESAKEIIEL
# B13: LC3A_free_39_2251 (protein)
# chain: SAAELAAALERAEALAATLDPETAAAFRELLELVKDNPEAVRLVTDGVEELRAEGGDVLAFLREATALVRELQAAGKSEEEIVRELRELRDDALNLIPLD
# B14: LC3A_132_244 (protein)
# chain: MEEKKEKLRKELKKLLEELKKNIDNLEKVKELVKKIEKLLEEAKKELSPEDALEIFEEVADRLDEIAEEAEAAGKEEVARIVENASMYADGLAIEQELKL
# B15: LC3A_28_789 (protein)
# chain: SALKENADAALEEAKAAAAAGVSTVITIKVTGDATQEDIDYVIEKLEEIAEILKDIKDQAIIIDVDAGVSQEHLDKLAKAAEEIEKKYPNVTVIIALEER
# B16: LC3A_127_185 (protein)
# chain: KKEELAEKLIELVEEAIENLQKPDFNEEEIKKLLEEAKKLAEELVKLDPSYKPVLEDIEKAIKLFEELLKAPESEKESLREHLIMLLDGIRIEIESLLLK
# B17: LC3A_28_697 (protein)
# chain: SATDKELEKARAEAEAAIARGEDALITLTIRPDTTMEEVKKILEEIEELARRMSEVGKLYVVVDVESGVKQENLDYIADKLDELEEEIPNLTSIIALDEE
# B18: LC3A_3_1812 (protein)
# chain: MEERLERALEELREAGASEETLEAVREAVERLLEKGYEEAAETFLELMLELKDLPSELLLELAEEVLELVETSDLSEEEITEKIKEIAATVRHEGEIIEL
# B19: LC3A_3_1616 (protein)
# chain: IEELLEKAIKTLKEAGKPEEVLELLKETVEKLLEKGYEEAAKTLLEEVIELADLSSEILLDLLKEVLELVETEDLSEEELTEKIKELARIARSEEEIIEL
# B20: LC3A_3_1785 (protein)
# chain: MEERREELLERLREAGHSEETIEAAREALELLIERGYEEAFETFVEELEELIDLPDEILLDMLEEVLELLKTHDLSEEEVKERIEELAELARNEGEIEEL
# B21: LC3A_28_1282 (protein)
# chain: SELDESIAAALAAARAAAAAGESAVITIRVPGGATEEEIEKVIEALREIAAILADVPDQAIVIDVDSGVAEEHIDKLADAAEEIEKEHPNVTVIIALDED
# B22: LC3A_3_1396 (protein)
# chain: FEEIRKEAIAFLKEKGKSEEVIEATEKVLDLLEERGYEEAAKEFLEELKKMKDLSDELLLDFLEDVENYLLENDDNEEEVIKYIKEEATIALNESEIEEL
# B23: LC3A_28_636 (protein)
# chain: SAIDKEIEKFKAEAKAAAAAGEEAVLTLKVGGDTDEEDVEKIIKTMEEVAEITKDLPRTTIIVDIDGGVKQELIDKLMDAAEEIEKKYPNVTVIFALDEE
# B24: LC3A_free_46_2347 (protein)
# chain: YKAEIDIDLLAEDEETLKKAVEEIVEAAKKIAKKYNLKVNIEVEIEKLEDGSYYARIKITLEGETKEDVEAAVNELIDEIDKIAKKYNVAAIISYEIIKT
# B25: LC3A_28_1319 (protein)
# chain: SSVEKELAKAEKQAEEQAAKGEDITITVKVSGKTTLEEAKKLMEGLEKIAEKYAPERKVNIIIDLDGKVKQEVIDLIAKKAEEIEKKYPNVTVIIALDEE
# B26: LC3A_free_39_2203 (protein)
# chain: SEEEEKEYEEELLKLAAEAGEEALKAAKELLKLVKGNTELVKTILEEVKRAVEEGADVLELLKRLLKLVKELQAQGKSEEEIIEALRAEADVIINLIPIE
# B27: LC3A_free_46_2337 (protein)
# chain: YRVTVTVDTLAAPKEKIEAFIADLTARAKAIAAELGAEIEIKVEIEKEEDGTYSATVTITITVETEEKAKQAAQKLLDAVDELDEKYGIVGLISSEIEKL
# Biological target: MAP1LC3A, Q9H492
# Assay: median log2 fold change of GCK-ALFA target abundance (FLAG IP / Myc IP barcode read proportion) (log2 ratio); each designed protein is fused to an ALFA-tag nanobody in HEK293 cells to bring the named protein to FLAG-tagged glucokinase (GCK); Myc marks an untargeted standard; higher = target protein stabilised (more abundant)
# Details: target protein: 3xFLAG-MCP-GCK-ALFA reporter; HEK293 landing pad (RPLP)
# Method in brief: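 An ALFA-nanobody-fused binder library was recombined into HEK293 landing-pad cells and induced with 2 μg mL^−1 doxycycline. Cells were transfected with a plasmid expressing a FLAG-tagged target and a Myc-tagged standard. After 48 h, lysates underwent anti-FLAG and anti-Myc immunoprecipitation, and circular RNA barcodes were reverse transcribed, amplified and sequenced. Target abundance is the per-binder median log2 ratio of FLAG to Myc barcode read proportions. Barcodes needed ≥10^−7 proportion in both replicates, binders ≥3 barcodes per replicate, and a 10^−6 pseudocount was added; the two replicates were pooled.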
row,Binder,median log2 fold change
1,B1,0.215
2,B2,0.206
3,B3,0.082
4,B4,-0.0903
5,B5,-0.819
6,B6,0.00352
7,B7,-0.36
8,B8,0.105
9,B9,0.29
10,B10,0.252
11,B11,0.0461
12,B12,0.227
13,B13,0.276
14,B14,-0.406
15,B15,0.14
16,B16,0.176
17,B17,0.0944
18,B18,0.126
19,B19,0.0587
20,B20,0.0238
21,B21,-0.339
22,B22,0.0883
23,B23,-0.361
24,B24,-0.556
25,B25,0.113
26,B26,0.201
27,B27,0.135
